# In all, about 33,000 sequences were measured (“E-score (-0.5 to 0.5)”: median about -0.035, highest 2% from about 0.35 on). The list shows a part of the results.
# Target: T1, Pdr3 (UniProt P33200)
# T1 sequence: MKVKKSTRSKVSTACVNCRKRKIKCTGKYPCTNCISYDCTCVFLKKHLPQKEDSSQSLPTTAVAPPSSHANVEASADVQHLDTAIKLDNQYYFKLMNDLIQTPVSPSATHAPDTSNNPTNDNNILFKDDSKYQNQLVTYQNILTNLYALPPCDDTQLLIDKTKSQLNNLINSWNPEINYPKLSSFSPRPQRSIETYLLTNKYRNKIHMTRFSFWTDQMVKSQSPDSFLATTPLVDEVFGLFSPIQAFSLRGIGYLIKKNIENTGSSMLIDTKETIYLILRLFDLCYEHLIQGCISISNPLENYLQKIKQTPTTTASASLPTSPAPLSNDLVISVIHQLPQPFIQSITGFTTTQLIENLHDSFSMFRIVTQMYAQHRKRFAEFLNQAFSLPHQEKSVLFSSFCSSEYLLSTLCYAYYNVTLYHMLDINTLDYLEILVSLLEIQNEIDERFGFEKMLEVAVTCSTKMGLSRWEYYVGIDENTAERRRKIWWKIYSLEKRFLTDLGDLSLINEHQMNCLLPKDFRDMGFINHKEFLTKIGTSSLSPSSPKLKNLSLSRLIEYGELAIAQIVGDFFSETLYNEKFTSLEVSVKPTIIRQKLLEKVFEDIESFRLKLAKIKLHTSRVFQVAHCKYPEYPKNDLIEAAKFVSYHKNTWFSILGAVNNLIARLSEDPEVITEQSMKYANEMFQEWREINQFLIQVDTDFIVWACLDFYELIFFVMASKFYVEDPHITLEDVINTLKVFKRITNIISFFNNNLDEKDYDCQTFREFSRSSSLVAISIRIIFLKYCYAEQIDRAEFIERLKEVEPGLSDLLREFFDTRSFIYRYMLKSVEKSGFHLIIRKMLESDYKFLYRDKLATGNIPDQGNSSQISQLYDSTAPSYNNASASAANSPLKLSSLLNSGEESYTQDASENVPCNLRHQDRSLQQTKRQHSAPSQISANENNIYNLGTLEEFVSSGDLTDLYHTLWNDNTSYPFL
# Assay: PBM E-score (8-mer binding enrichment) (E-score (-0.5 to 0.5)); higher = stronger / more preferred TF binding; most listed sequences are background and not binding sites
# Conditions: protein concentration: 200 nM; construct: GST-full length
# How it was run: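 GST-tagged yeast TFs (full-length or DNA-binding domain) were made by PURExpress in vitro transcription/translation and applied at about 100-200 nM to universal all-10-mer Agilent arrays. The arrays were made double-stranded by primer extension, on fresh or once-stripped slides. Bound protein was detected with fluorescent anti-GST, and scans were normalised with masliner. Each ungapped eight-base word, pooled with its reverse complement, received an E-score (modified Wilcoxon-Mann-Whitney statistic) from the Universal PBM Analysis Suite.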
row,Sequence,PBM E-score
1,TCGGTTAA,0.223
2,CTGCGAGC,0.109
3,CACCTTGG,0.0296
4,ACGTGGGC,-0.102
5,GCAGGCTA,-0.23
6,CTGCCGGA,0.32
7,ATTTCCGG,0.456
8,GTGTGGCA,-0.1
9,ATCTTCAG,0.0622
10,AAATTGGT,0.0397
11,TGGTTACA,-0.197
12,ATACCTTC,0.00572
13,ACCAGAAG,-0.172
14,ACAGACTA,-0.193
15,CAGGCCGC,0.0618
16,GTAAATTA,-0.22
17,ACCTTCAG,-0.152
18,ATTCCAAT,-0.0386
19,AAGGCGCG,-0.122
20,ATGCAATC,0.0319
21,ATGGACTA,-0.0711
22,CGTATGAA,0.133
23,CTTCTTTA,-0.164
24,CACACGAA,-0.0306
25,AAACCCGC,0.258

row,Sequence,PBM E-score
1,ATGCCGAG,0.224
2,CCGGCTCA,0.294
3,AATGACAT,0.0556
4,TAAAGTAA,-0.197
5,ACCTCAAG,-0.0979
6,CATTGAAC,0.0265
7,CTTGACCC,-0.017
8,AGATCAGG,-0.169
9,GTTCTATA,-0.0539
10,CTTCATGC,0.0311
11,AGCGTCAC,-0.106
12,ACCGCCAG,0.1
13,AAGTGACG,-0.0359
14,GAAAGTAA,0.0331
15,ACATCGGT,-0.135
16,AAGAGCAA,-0.123
17,CCCATAGA,-0.247
18,CGCTAAAA,0.00276
19,GTGCGCAC,0.258
20,CCTGATAG,-0.219
21,ATCGGTCC,0.263
22,AGAGCTCG,0.0679
23,GTCTCGGA,0.306
24,AGGCTTGC,-0.261
25,CTTCAGGA,0.0815

row,Sequence,PBM E-score
1,AGTCAAAA,-0.104
2,CCAGCATA,-0.219
3,ACACTTCA,0.0528
4,ATGATTCC,0.304
5,GAGTCGAA,0.186
6,GGCGCGTA,-0.0855
7,GATATTCC,0.329
8,CCCCCCTA,-0.344
9,CGCATATA,-0.147
10,TATGCACA,-0.16
11,ACTTTACC,-0.0379
12,TGGGATAA,-0.102
13,TCCTAGGA,0.0261
14,CCTCGTCG,0.108
15,CAGGGGTC,-0.165
16,TGGAGCCA,-0.343
17,AGATAGGC,-0.16
18,TACTAAGA,-0.0607
19,AAGACTGG,-0.198
20,CGACAGAG,-0.213
21,CGAGTCCG,0.309
22,CTGGAAAA,0.144
23,CTGCGGAC,0.1
24,CTAGTTAA,-0.182
25,AACTCGGC,0.24

row,Sequence,PBM E-score
1,GGGTCCAC,-0.0965
2,ACTGCAGA,-0.0799
3,ACCACAGC,-0.0777
4,TCGTGACA,0.00277
5,CCCCCGGG,0.364
6,GGAGCAGA,0.0813
7,AGAAGGTC,0.0619
8,GAGGTGGA,-0.00656
9,GCCGAGGA,0.313
10,ACCGAAGG,-0.0364
11,AGAAGTAT,0.0303
12,CGCGTAGA,-0.0879
13,AGCACGGG,0.131
14,CATACCTA,-0.127
15,CAATAGAG,-0.166
16,ACGTGCCG,0.226
17,GCGGGCCC,0.247
18,CCCTCTTC,-0.151
19,ATTCCCAA,-0.0687
20,ACTGCTCA,-0.0736
21,GGTCCTTA,0.0165
22,AGATTCCG,0.453
23,GAAAACCA,-0.103
24,ATCGCATA,-0.00724
25,ATGGGATA,-0.116

row,Sequence,PBM E-score
1,TGACTCAA,-0.25
2,ATCCAAAT,-0.121
3,AGTTCCGC,0.467
4,ACGAGGAT,-0.307
5,CTCCTTAC,-0.269
6,AGCGTCCT,-0.285
7,GTTTTTCA,0.0118
8,ACATTAAC,-0.0279
9,GTCCTCAC,-0.0494
10,CTCGTCTA,-0.224
11,AAGTACAC,-0.0495
12,ATAGGCCC,-0.105
13,AAGCAATA,-0.0544
14,AACGGCTA,0.013
15,GGCAGAAA,0.174
16,CGCTAGTC,-0.336
17,ATTCAAGA,-0.0769
18,GACGAACA,0.151
19,CAAAAGGA,-0.171
20,CGCACATA,-0.119
21,AGAGAGCT,-0.335
22,CCAGGCCG,0.0672
23,AGTTGGGG,0.0491
24,CAACGTCG,-0.0264
25,GACGCGGA,0.228

row,Sequence,PBM E-score
1,ATGTGCTC,0.0809
2,ATCCCATG,0.0213
3,ATACACTC,0.0426
4,CTCAAGGC,-0.0779
5,GTGAGGGA,-0.118
6,TAAGCACA,0.108
7,GTCCTCAA,-0.1
8,AATTCTGA,-0.0763
9,CGGGTCCC,0.227
10,AGGAGAAC,-0.0499
11,CGTTGTAC,-0.129
12,ATGGAGTA,0.0718
13,ATCCAGCA,-0.318
14,CCGCATAC,0.19
15,GGTCAGCA,-0.0188
16,GCGTATAC,-0.156
17,AAGCTCGA,0.103
18,ACTGTTAC,-0.209
19,CAGTGAAA,0.0387
20,ATGTCTGA,-0.106
21,ATGTCGTG,-0.211
22,AGTTATAA,-0.262
23,CTAATTCA,-0.147
24,CGCATGTA,-0.137
25,CGTACAAG,-0.101

row,Sequence,PBM E-score
1,GGTTTGGA,-0.0505
2,CATATTAA,-0.0147
3,ACAGCCGG,0.299
4,ACCAAGCA,-0.112
5,AGTTATGC,-0.0653
6,ACCGCCTA,-0.0211
7,ACAGCACC,-0.0246
8,CCATTTTC,0.0618
9,ATTCGCGA,0.0307
10,CCCCCCCG,-0.317
11,AAAAGCCT,-0.306
12,ATAGTCAT,-0.0921
13,GAAGTCAA,-0.0201
14,AGCCTTTC,-0.167
15,ATTCAACA,0.0845
16,CCTTTAAC,0.0603
17,AATCCTTA,-0.292
18,CACGCTCC,-0.0847
19,CAGATATA,0.0615
20,CGAATCCG,0.249
21,AGATCGGA,0.394
22,CCTGATTA,0.0294
